Data from PubChem BioAssay AID1347165 (National Center for Advancing Translational Sciences (NCATS), 2019).
Out of some 220,000 compounds screened, about 5,700 (2.6%) were called active. The shares of active, inactive and inconclusive entries below differ from those in the screen. Calls come from the whole dose curve; as a rule, active = well fitted inhibition curve with a large enough effect; inconclusive = small, poorly fitted or top-dose-only effect; inactive = no such curve, though single readings can be large or run the other way. Potencies of inconclusive entries are doubtful fits and often do not repeat.

Each compound was assayed against Lysine-specific demethylase 5B (Homo sapiens) (UniProt Q9UGL1) (assay: Primary screen for KDM5B Histone Demethylases FDH-coupled qHTS). Conditions: FDH-coupled NADH fluorescence (FDH is formaldehyde dehydrogenase); activity change, negative = inhibition: at 57.7 µM (top of the series) unless noted.
UniProt Q9UGL1, sequence (Q9UGL1 whole entry, looked up): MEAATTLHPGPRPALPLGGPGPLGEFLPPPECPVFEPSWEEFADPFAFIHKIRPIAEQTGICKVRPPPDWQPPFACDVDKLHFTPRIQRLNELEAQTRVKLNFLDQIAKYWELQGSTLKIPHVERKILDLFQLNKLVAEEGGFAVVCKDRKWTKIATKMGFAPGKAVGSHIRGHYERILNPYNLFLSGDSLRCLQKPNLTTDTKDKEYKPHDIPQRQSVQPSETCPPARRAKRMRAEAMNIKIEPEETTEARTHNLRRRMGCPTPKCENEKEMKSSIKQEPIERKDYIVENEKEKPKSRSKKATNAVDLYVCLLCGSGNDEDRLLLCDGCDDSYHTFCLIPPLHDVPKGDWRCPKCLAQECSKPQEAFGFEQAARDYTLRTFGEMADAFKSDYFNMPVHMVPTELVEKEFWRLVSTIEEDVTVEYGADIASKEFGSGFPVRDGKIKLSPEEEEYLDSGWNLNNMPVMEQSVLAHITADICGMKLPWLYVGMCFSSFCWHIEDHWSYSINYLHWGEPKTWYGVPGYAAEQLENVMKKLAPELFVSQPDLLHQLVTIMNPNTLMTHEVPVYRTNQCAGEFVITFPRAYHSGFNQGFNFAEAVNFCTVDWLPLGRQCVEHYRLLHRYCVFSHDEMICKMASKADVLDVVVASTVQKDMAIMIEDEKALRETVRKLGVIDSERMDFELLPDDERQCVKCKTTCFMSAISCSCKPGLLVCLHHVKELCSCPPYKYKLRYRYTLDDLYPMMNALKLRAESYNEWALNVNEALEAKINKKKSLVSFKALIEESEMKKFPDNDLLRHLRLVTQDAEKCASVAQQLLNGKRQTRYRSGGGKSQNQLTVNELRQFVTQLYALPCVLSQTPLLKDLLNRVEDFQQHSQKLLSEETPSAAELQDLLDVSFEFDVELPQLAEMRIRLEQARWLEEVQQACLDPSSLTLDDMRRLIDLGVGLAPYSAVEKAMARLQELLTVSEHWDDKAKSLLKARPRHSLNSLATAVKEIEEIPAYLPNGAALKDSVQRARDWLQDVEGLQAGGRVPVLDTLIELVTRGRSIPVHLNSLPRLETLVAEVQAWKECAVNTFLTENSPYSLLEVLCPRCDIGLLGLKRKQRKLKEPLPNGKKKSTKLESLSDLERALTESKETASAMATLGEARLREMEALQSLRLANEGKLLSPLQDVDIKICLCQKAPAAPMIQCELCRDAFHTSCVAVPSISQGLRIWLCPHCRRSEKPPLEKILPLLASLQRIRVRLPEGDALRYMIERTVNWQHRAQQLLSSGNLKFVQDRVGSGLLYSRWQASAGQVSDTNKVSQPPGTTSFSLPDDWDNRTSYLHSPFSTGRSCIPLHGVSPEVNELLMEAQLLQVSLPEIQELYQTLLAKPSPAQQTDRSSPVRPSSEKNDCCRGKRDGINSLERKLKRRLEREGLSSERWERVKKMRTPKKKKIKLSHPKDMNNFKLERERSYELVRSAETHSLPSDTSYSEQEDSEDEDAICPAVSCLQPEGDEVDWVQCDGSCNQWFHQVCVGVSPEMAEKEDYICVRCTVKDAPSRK
Method in brief: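 Measured: NADH fluorescence change, 30 min, RT. System: KDM5BΔAP 200 nM final, H3K4me3 peptide, α-KG, Fe(II), ascorbate, NAD⁺ plus FDH, pH 7.5 HEPES. Compounds: titrated, 10 min pre-incubation with enzyme.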
Note: nearly all actives have a fitted effect of over 70% in size.
Potency is the fitted concentration of half-maximal effect; tags give direction and shape of the fitted curve.
Throughout, for activity change, negative = inhibition: 0% is about no effect.

Structure (SMILES)	activity change, negative = inhibition	Potency
CC(C)c1nc(C#N)c(N2CCN(c3ccccc3)CC2)o1	inactive: -3.06%	
O=C(O)C[C@@H]1CCN(C(=O)C2CCCC2)C[C@@H]1CC1=NCCc2cc(F)ccc21		inconclusive: 31.6 µM [inhibitor, partial curve, poor fit]
Cc1ccsc1C(=O)N1CCCC(CN2CCCC2)CC1 (configuration not stated)		inconclusive: 17.8 µM [inhibitor, partial curve]
COc1ccccc1C(=O)NCc1ccnc2[nH]ccc12		inconclusive: 28.2 µM [inhibitor, single point]
CS(=O)(=O)c1ccc(CN2C[C@H](O)C[C@H]2c2nc(-c3ccc(F)cc3)no2)cc1		inconclusive: 22.4 µM [inhibitor, partial curve, poor fit]
COc1cc(C(=O)/C=C/c2ccc(F)cc2)ccc1S(C)(=O)=O		inconclusive: 28.2 µM [inhibitor, partial curve, poor fit]
COc1cccc(NC(=O)Cn2c(=O)n(Cc3ccc(C(=O)NCc4ccc5c(c4)OCO5)cc3)c(=O)c3ccccc32)c1		inconclusive: 22.4 µM [inhibitor, partial curve, poor fit]
COc1cc(-c2onc(C)c2C(=O)N2CCC(Cc3ccc4c(c3)OCO4)CC2)cc(OC)c1OC		inconclusive: 31.6 µM [inhibitor, partial curve, poor fit]
Cc1cc(-c2ccc(Cl)cc2)n2ncnc2n1		inconclusive: 22.4 µM [inhibitor, partial curve, poor fit]
O=C(c1nnc(COc2ccc(OC(F)(F)F)cc2)n1-c1ccccc1)N1CCC[C@@H]1C(c1ccccc1)c1ccccc1		inconclusive: 10 µM [inhibitor, partial curve]
COc1ccc(C2c3c(n(C)c4ccccc34)C(=O)N2CC(=O)Nc2ccc(C)cc2Cl)cc1 (configuration not stated)		inconclusive: 31.6 µM [inhibitor, partial curve, poor fit]
CCN(CC)S(=O)(=O)c1ccc(-c2csc(=Nc3cccc(C(F)(F)F)c3)n2Cc2ccc3c(c2)OCO3)cc1		inconclusive: 31.6 µM [inhibitor, single point]
CN(Cc1ccc(Br)cc1)c1cc(C(=O)N2CCOCC2)c2ccccc2n1		inconclusive: 25.1 µM [inhibitor, partial curve, poor fit]
CCCC(C(=O)NCCc1ccccn1)c1ccccc1 (configuration not stated)	inactive: -1.29%	
O=[N+]([O-])C=C(c1ccccc1)c1ccccc1	inactive: -10.3%	
COCCN1CC(CO)C2(CCN(Cc3cccc(C#N)c3)CC2)C1 (configuration not stated)		inconclusive: 14.1 µM [inhibitor, partial curve]
CCNC(=O)[C@@H]1CCCN1[C@@H](C(=O)NC)c1ccccc1OC	inactive: -6.62% [at 86.2 µM]	
Cc1nn2c(c1-c1ccccc1-c1ccccc1)N(Cc1ccc(O)cc1)CCC2		active: 28.2 µM
Cn1nc(-c2nncn2CC2CC2)c2c1CCN(C(=O)c1n[nH]c3ccccc13)C2		active: 20 µM
CCCCCCc1cc2cc(-c3nnc(-c4cccc(Cl)c4)o3)c(=O)oc2cc1O		inconclusive: 3.55 µM [inhibitor, full curve, poor fit]
COc1ccc(C2Cn3nnc(C(=O)NC4CCCCCCC4)c3CO2)cc1 (configuration not stated)	inactive: -33.9%	

Structure (SMILES)	activity change, negative = inhibition	Potency
O=C(O)c1ccc(-c2ccc(N3CCCCCC3)nc2)cc1		inconclusive: 3.16 µM [inhibitor, partial curve, poor fit]
CN(C)S(=O)(=O)N1CC=C(c2c[nH]c3ccccc23)CC1		inconclusive: 39.8 µM [inhibitor, single point]
CSc1ccc(/C=C2\N=C(c3ccc(C)cc3)OC2=O)cc1	inactive: 16.9%	
N#Cc1ccc(N2C[C@@H]3OCC(=O)N(Cc4ccccn4)[C@@H]3C2)nc1		inconclusive: 31.6 µM [inhibitor, single point]
O=C(c1ccccc1)N1CCC(N2CCOCC2=O)CC1	inactive: -5.67% [at 149 µM]	
Cn1c(=O)c2[nH]c(-c3cccc(O)c3)nc2n(C)c1=O	inactive: -21.5%	
Cc1nn(-c2ccc(F)cc2F)c2c1C(C(=O)c1ccc(C(C)C)cc1)CC(=O)N2 (configuration not stated)	inactive: -8.03%	
COCCCNC(=O)C1c2ccccc2CC(=O)N1Cc1ccccc1 (configuration not stated)		inconclusive: 15.8 µM [inhibitor, partial curve]
COC(=O)c1ccccc1NC(=O)N1CCC[C@@H](O)[C@H](NC(=O)c2ccc(OCc3ccccc3)cc2)C1		active: 25.1 µM
CC1=NS(=O)(=O)N(C)C=C1C(=O)OCc1nc(-c2cccc(Cl)c2)no1	inactive: -28.7%	
CCOCC1(C)COc2ccc(C(=O)N(C)Cc3ccccc3)cc2N1 (configuration not stated)	inactive: -19.2% [at 86.2 µM]	
Cc1ccc(N(CC(=O)Nc2ccc(F)cc2F)S(=O)(=O)c2cccs2)cc1		inconclusive: 25.1 µM [inhibitor, partial curve, poor fit]
O=C(Cn1nc(-c2ccc(F)cc2)c2ccccc2c1=O)N1CCOCC1	inactive: 4.31%	
O=C(CSc1nc2ccsc2c(=O)n1-c1ccccc1)NC1CCCC1		inconclusive: 35.5 µM [inhibitor, single point]
O=c1[nH]c(-n2cccc2)c(-c2c(-c3ccc4ccccc4c3)[nH]c3[nH]c(=O)[nH]c(=O)c23)c(=O)[nH]1		inconclusive: 28.2 µM [inhibitor, single point]
CNC(=O)c1cc(-c2cnn(C)c2C)cc2c1OCCN2Cc1cccnc1		active: 35.5 µM
O=C(c1cccs1)N1CCCCCC1CN1CCCC1 (configuration not stated)		inconclusive: 22.4 µM [inhibitor, single point]
CCOC(=O)C1=C(CN2CCN(C(=O)OC(C)(C)C)CC2)NC(=O)NC1c1ccccc1OCC (configuration not stated)		inconclusive: 39.8 µM [inhibitor, single point]
COc1ccc(C(=O)NCCc2csc(-c3ccc(Cl)cc3)n2)cc1		inconclusive: 22.4 µM [inhibitor, single point]
COC(=O)Cc1c(C)c2ccc(OCc3nn[nH]n3)cc2oc1=O		inconclusive: 28.2 µM [inhibitor, partial curve, poor fit]
Cn1cc(CCCC(=O)NCc2cccc(Br)c2)c2ccccc21		inconclusive: 35.5 µM [inhibitor, single point]
